Source: the supplement of paper PMC8728848
The list shows a part of the results.

Columns and labels:
Experiment in all cases: glycan array binding signal (z-score within array); higher = stronger binding
Settings in all cases: glycan notation: IUPAC condensed, linker removed; mutation: K348A
[1] = target: Gal(b1-3)[Fuc(a1-4)]GlcNAc(b1-3)Gal(b1-4)[Fuc(a1-3)]GlcNAc
How it was run: (§1)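 Glycan array data came from 3228 arrays in the Consortium for Functional Glycomics database, and only arrays with an available protein sequence were kept. Glycan names were put into IUPAC-condensed notation, and columns mapping to the same glycan were averaged. The binding signal is a within-array Z-score, averaged across arrays of one protein sequence run at different concentrations or buffers and across linkers. A negative Z-score can be read as non-binding.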

[2] = target: Gal(b1-3)[GlcNAc(b1-6)]GalNAc
How it was run: as §1

[3] = target: Gal(b1-3)[Neu5Ac(a2-6)]GalNAc
How it was run: as §1

[4] = target: Gal(b1-3)[Neu5Ac(a2-6)]GlcNAc(b1-6)Gal(b1-4)Glc
How it was run: as §1

[5] = target: Gal(b1-3)[Neu5Ac(b2-6)]GalNAc
How it was run: as §1

[6] = target: Gal(b1-4)GalNAc(a1-3)[Fuc(a1-2)]Gal(b1-4)GlcNAc
How it was run: as §1

[7] = target: Gal(b1-4)GalNAc(b1-3)[Fuc(a1-2)]Gal(b1-4)GlcNAc
How it was run: as §1

Gal(b1-4)Glc = target: Gal(b1-4)Glc
How it was run: as §1

Gal(b1-4)Glc6S = target: Gal(b1-4)Glc6S
How it was run: as §1

Gal(b1-4)GlcNAc = target: Gal(b1-4)GlcNAc
How it was run: as §1

[8] = target: Gal(b1-4)GlcNAc(a1-6)Gal(b1-4)GlcNAc
How it was run: as §1

[9] = target: Gal(b1-4)GlcNAc(b1-2)Man(a1-3)[Gal(b1-4)GlcNAc(b1-2)Man(a1-6)]Man(b1-4)GlcNAc(b1-4)GlcNAc
How it was run: as §1

[10] = target: Gal(b1-4)GlcNAc(b1-3)Gal(b1-3)GlcNAc
How it was run: as §1

[11] = target: Gal(b1-4)GlcNAc(b1-3)Gal(b1-4)Glc
How it was run: as §1

[12] = target: Gal(b1-4)GlcNAc(b1-3)Gal(b1-4)GlcNAc
How it was run: as §1

[13] = target: Gal(b1-4)GlcNAc(b1-3)Gal(b1-4)GlcNAc(b1-3)Gal(b1-4)GlcNAc
How it was run: as §1

[14] = target: Gal(b1-4)GlcNAc(b1-3)Gal(b1-4)[Fuc(a1-3)]GlcNAc(b1-3)Gal(b1-4)[Fuc(a1-3)]GlcNAc
How it was run: as §1

[15] = target: Gal(b1-4)GlcNAc(b1-3)GalNAc
How it was run: as §1

[16] = target: Gal(b1-4)GlcNAc(b1-3)[Gal(b1-4)GlcNAc(b1-6)]Gal(b1-4)GlcNAc
How it was run: as §1

[17] = target: Gal(b1-4)GlcNAc(b1-3)[GlcNAc(b1-6)]Gal(b1-4)GlcNAc
How it was run: as §1

[18] = target: Gal(b1-4)GlcNAc(b1-6)Gal(b1-4)GlcNAc
How it was run: as §1

[19] = target: Gal(b1-4)GlcNAc(b1-6)Gal(b1-4)GlcNAc(b1-6)GalNAc
How it was run: as §1

[20] = target: Gal(b1-4)GlcNAc(b1-6)GalNAc
How it was run: as §1

[21] = target: Gal(b1-4)GlcNAc(b1-6)[Gal(b1-3)]GalNAc
How it was run: as §1

Gal3S(b1-3)GalNAc = target: Gal3S(b1-3)GalNAc
How it was run: as §1

Gal3S(b1-3)GlcNAc = target: Gal3S(b1-3)GlcNAc
How it was run: as §1

[22] = target: Gal3S(b1-3)[Fuc(a1-4)]GlcNAc
How it was run: as §1

Gal3S(b1-4)Glc = target: Gal3S(b1-4)Glc
How it was run: as §1

Gal3S(b1-4)Glc6S = target: Gal3S(b1-4)Glc6S
How it was run: as §1

Gal3S(b1-4)GlcNAc = target: Gal3S(b1-4)GlcNAc
How it was run: as §1

Gal3S(b1-4)GlcNAc6S = target: Gal3S(b1-4)GlcNAc6S
How it was run: as §1

[23] = target: Gal3S(b1-4)[Fuc(a1-3)]Glc
How it was run: as §1

Gal3S4S(b1-4)GlcNAc = target: Gal3S4S(b1-4)GlcNAc
How it was run: as §1

Gal3S6S(b1-4)GlcNAc = target: Gal3S6S(b1-4)GlcNAc
How it was run: as §1

Gal3S6S(b1-4)GlcNAc6S = target: Gal3S6S(b1-4)GlcNAc6S
How it was run: as §1

Gal4S(b1-4)GlcNAc = target: Gal4S(b1-4)GlcNAc
How it was run: as §1

Gal4S6S(b1-4)GlcNAc = target: Gal4S6S(b1-4)GlcNAc
How it was run: as §1

B1: Surfactant Protein D (Human); Neck + Carbohydrate Recognition Domain (NCRD) (Homo sapiens) (protein)
chain: MLLFLLSALVLLTQPLGYLEAEMKTYSHRTMPSACTLVMCSSVESGLPGRDRDGREGPRGEKGDPGLPGAAGQAGMPGQAGPVGPKGDNGSVGEPGPKGDTGPSGPPGPPGVPGPAGREGALGKQGNIGPQGKPGPKGEAGPKGEVGAPGMQGSAGARGLAGPKGERGVPGERGVPGNTGAAGSAGAMGPQGSPGARGPPGLKGDKGIPGDKGAKGESGLPDVASLRQQVEALQGQVQHLQAAFSQYKKVELFPNGQSVGEKIFKTAQFVKPFTEAQLLCTQAGGQLASPRSAAENAALQQLVVAKNEAAFLSMTDSKTEGKFTYPTGESLVYSNWAPGEPNDDGGSEDCVEIFTNGKWNDRACGEARLVVCEF
- glycan array binding signal (z-score) [1]: -0.152
- glycan array binding signal (z-score) [2]: -0.15
- glycan array binding signal (z-score) [3]: -0.178
- glycan array binding signal (z-score) [4]: -0.165
- glycan array binding signal (z-score) [5]: -0.09
- glycan array binding signal (z-score) [6]: -0.175
- glycan array binding signal (z-score) [7]: -0.135
- glycan array binding signal (z-score) (Gal(b1-4)Glc): -0.169
- glycan array binding signal (z-score) (Gal(b1-4)Glc6S): -0.15
- glycan array binding signal (z-score) (Gal(b1-4)GlcNAc): -0.163
- glycan array binding signal (z-score) [8]: -0.176
- glycan array binding signal (z-score) [9]: -0.164
- glycan array binding signal (z-score) [10]: -0.172
- glycan array binding signal (z-score) [11]: -0.157
- glycan array binding signal (z-score) [12]: -0.164
- glycan array binding signal (z-score) [13]: -0.172
- glycan array binding signal (z-score) [14]: -0.168
- glycan array binding signal (z-score) [15]: -0.15
- glycan array binding signal (z-score) [16]: -0.175
- glycan array binding signal (z-score) [17]: -0.161
- glycan array binding signal (z-score) [18]: -0.153
- glycan array binding signal (z-score) [19]: -0.157
- glycan array binding signal (z-score) [20]: -0.173
- glycan array binding signal (z-score) [21]: -0.158
- glycan array binding signal (z-score) (Gal3S(b1-3)GalNAc): -0.172
- glycan array binding signal (z-score) (Gal3S(b1-3)GlcNAc): -0.157
- glycan array binding signal (z-score) [22]: -0.174
- glycan array binding signal (z-score) (Gal3S(b1-4)Glc): -0.172
- glycan array binding signal (z-score) (Gal3S(b1-4)Glc6S): -0.163
- glycan array binding signal (z-score) (Gal3S(b1-4)GlcNAc): -0.166
- glycan array binding signal (z-score) (Gal3S(b1-4)GlcNAc6S): -0.165
- glycan array binding signal (z-score) [23]: -0.17
- glycan array binding signal (z-score) (Gal3S4S(b1-4)GlcNAc): -0.156
- glycan array binding signal (z-score) (Gal3S6S(b1-4)GlcNAc): -0.181
- glycan array binding signal (z-score) (Gal3S6S(b1-4)GlcNAc6S): -0.169
- glycan array binding signal (z-score) (Gal4S(b1-4)GlcNAc): -0.155
- glycan array binding signal (z-score) (Gal4S6S(b1-4)GlcNAc): -0.176
